Source: paper PMC5143173 (Structure (London, England : 1993), 2016)

B1: Apoptosis-inducing factor AIF121 ([…]), wild type (domain or fragment)
chain: not shown
B2: Apoptosis-inducing factor AIF78 ([…]), wild type (domain or fragment)
chain: not shown

Molecular target: the molecule itself
Experiment: SAXS

Row | Protein | stoichiometry N
1 | B1 | 2
2 | B2 | 2
